# PubChem BioAssay AID624418 (National Center for Advancing Translational Sciences (NCATS), 2012)
# The campaign covered roughly 410,000 compounds. About 530 (0.13%) were called active. Inconclusive results, whose numbers are uncertain, are shown with a selection of clear calls. Calls come from the whole dose curve; as a rule, active = well fitted inhibition curve with a large enough effect; inconclusive = small, poorly fitted or top-dose-only effect, or another doubt; inactive = no such curve, though single readings can be large or run the other way. Potencies beside an inconclusive call are fits to weak or partial responses and may not hold up.
# Test: qHTS of GLP-1 Receptor Inverse Agonists: Cytotox Screen
# Settings: HEK293 cAMP-luciferase reporter cells, luminescence, 24 h; activity change, negative = inhibition: at 38.3 µM (top of the series) unless noted
# Procedure, shortened: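 Cells in DMEM/10% Nu serum/1% pen-strep, 1536-well format. Pre-incubated 12 h, dosed with 23 nL compound, incubated a further 24 h. Luciferase detection, 12 min at room temp, luminescence.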
# % is set by controls: 0 for no effect and ±100 for the full control effect; potency is the fitted concentration of half-maximal effect.
Structure (SMILES),Potency,"activity change, negative = inhibition"
COc1ccc(NC(=O)CSCC(=O)N=c2sccn2C)cc1,"inconclusive: 10 µM [inhibitor, single point]",–
S=c1[nH]nc(COc2ccccc2)n1/N=C/c1ccccc1Br,–,inconclusive: -34.6% [inhibitor]
CCCCNC(=S)Nc1ccc([N+](=O)[O-])cc1,"inconclusive: 17.8 µM [inhibitor, single point]",–
O=C(NC(=S)Nc1ccccc1N1CCCCC1)c1ccco1,"inconclusive: 12.6 µM [inhibitor, single point]",–
COc1ccc(-c2ccc3sc4ccccc4c(=O)c3c2)cn1,inactive,–
COc1cc(C(=O)N(C)CCOc2ccccc2)ccc1OCC(=O)Nc1cccc(C(F)(F)F)c1,"inconclusive: 28.2 µM [inhibitor, single point]",–
CN(C)CCNC(=O)c1cccc2ccc(-c3ccc(-c4ccccc4)cc3)nc12,"inconclusive: 11.2 µM [inhibitor, partial curve, poor fit]",–
CCCC(=O)Nc1c2c(nn1-c1ccccc1)CSC2,inactive,–
c1ccc(COc2ccccc2CNC23CC4CC(CC(C4)C2)C3)cc1,"inconclusive: 12.6 µM [inhibitor, single point]",–
COC(=O)c1ccc(C2/C(=C(\O)c3ccc(OC)c(C)c3)C(=O)C(=O)N2c2cc(C)on2)cc1 (stereo not given),inactive,–
COc1ccc(CN(Cc2ccccn2)S(=O)(=O)c2ccc(-n3cnnn3)c(OC)c2)cc1,"inconclusive: 11.2 µM [inhibitor, partial curve]",–
COc1cccc(CNC(=O)CN(c2cc(C)cc(C)c2)S(=O)(=O)c2c(C)noc2C)c1,inactive,–
Cc1ccc(-c2cc(C(=O)N3N=C(C(F)F)CC3(O)C(F)F)c3ccccc3n2)cc1C (stereo not given),"inconclusive: 28.2 µM [inhibitor, single point]",–
S=C(N/N=C/c1ccccc1)N1CCOCC1,"inconclusive: 0.398 µM [inhibitor, full curve, poor fit]",–
COc1ccc(-c2csc3ncnc(Nc4ccc(OC)cc4OC)c23)cc1,inactive,–
Oc1ccc(C(=S)N2CCN(Cc3ccccc3)CC2)cc1,inactive,–
CCc1ccc(C2c3c(-c4cc(C)ccc4O)n[nH]c3C(=O)N2CCO)cc1 (stereo not given),inactive,–
N#Cc1c(SCC(=O)Nc2nncs2)sc2c(O)cc(=O)[nH]c12,inactive,–
CC1=NN(C(=O)COc2ccccc2C)C(O)(c2ccc(Cl)cc2)C1 (stereo not given),"inconclusive: 12.6 µM [inhibitor, single point]",–
Fc1cccc(CSc2nc3ncc(Cl)cc3[nH]2)c1,"inconclusive: 5.62 µM [inhibitor, partial curve, poor fit]",–
